# Measurements taken from ChEMBL document CHEMBL4888484, “Replenishing the malaria drug discovery pipeline: Screening and hit evaluation of the MMV Hit Generation Library 1 (HGL1) against asexual blood stage Plasmodium falciparum ,using a nano luciferase reporter read-out” (2022).
# The whole screen tested about 4,800 compounds, of which about 420 (8.8%) showed an effect of 50% or more. The list shows a part of the results.
# Test system: Plasmodium falciparum
# Test: Confirmatory screen in NF54 nanoGlo assay, in single point, at 2uM, 72h
# Format: functional, Erythrocyte
# Settings: timepoint 72 hour
row,SMILES,% Inhibition [%]
1,O=C(Nc1nncs1)c1cccc(C(=O)Nc2nncs2)n1,68
2,Cc1ccc2c(c1)nc(-n1nc(C)cc1C)c1nnnn12,-8
3,Cc1ccc(C(=O)N2C[C@@H]3C[C@H](NC(=O)c4cccnc4)[C@H]2C3)cc1F,-5
4,Cc1cccc(NS(=O)(=O)c2ccc3c(c2)Cc2cc(S(=O)(=O)Nc4cccc(C)c4)ccc2-3)c1,10
5,CCCNC(=O)O[C@@H]1CC[C@]2(C)C(CC[C@@H](O)[C@H]2CC(=O)N2CCC(C)CC2)[C@]1(C)CO (stereo partly drawn),6
6,CN1C(=O)[C@@H]2CCCCN2c2ccc(C(=O)NCCN3CCN(c4ccccc4F)CC3)cc21,0
7,O=C(NC1CC1C1CCCCC1)N1CCS(=O)(=O)CC1 (stereo not drawn),-3
8,Oc1ccc(C2=C(c3ccccc3)N=NCN2O)c(O)c1,-14
9,CC(C)[C@H](OC(=O)n1ccnc1)C(=O)OC(C)(C)C,-10
10,CNCc1cc(OC)c(OC)cc1Cl,-2
11,COc1ccccc1N1CCN(CC(=O)Nc2c3c(nc4ccccc24)N(c2cccc(C)c2)CC3)CC1,-6
12,CCOC(=O)c1ccc2[nH]cnc2c1NC(C)=O,3
13,Cn1nc(C(=O)NC2CCCCC2)cc1C(=O)NC1CCCCC1,-10
14,COc1ccc(-n2ncc3c(N)c4c(nc32)CCCC4=O)cc1,38
15,CCc1ccc(NC(=O)c2c(C)sc3ncnc(N4CCCCC4)c23)cc1,8
16,N[C@H]1C[C@@H](c2cc(N3CCN(C4CCCCC4)CC3)nc(N3CCCC3)n2)C1,44
17,COc1ccc(-n2nc(C)c3c2NC(=O)C[C@@H]3c2ccccc2OCC(C)C)nn1,-7
18,C[C@H]1CCCN(S(=O)(=O)NCC(=O)Nc2ccccn2)C1,-15
19,NC(=O)C(NC(=O)c1cccc(Cl)c1)C(N)=O,-23
20,CC(CC1OCC(C[N+]2(Cc3ccccc3)CCCCC2)O1)CC(C)(C)C (stereo not drawn),57
21,CS(=O)(=O)NCCn1nc(-c2cnccn2)cc1C1CC1,-1
22,CC(C)Cn1ncnc1COC(=O)c1cccnc1,-1
23,COc1cccc(C(=O)N2CCC[C@@]3(C2)Nc2cccnc2N=C3NCc2ccccc2)c1,-4
24,COc1cc2c(cc1-c1cccnc1)CCC(=O)N2C,-15
25,O=C(NOC1CCCCO1)NC1CCOC1c1ccc(Cl)cc1 (stereo not drawn),-8
26,COc1cccc(C(=O)N2CCN(c3nnc4ccc(C(F)(F)F)cn34)CC2)c1,1

row,SMILES,% Inhibition [%]
1,Nc1ncncc1C(=O)NCCc1c[nH]c2ccc(F)cc12,-4
2,CC(C)(NCc1ccncc1Cl)c1ccc2c(c1)OCO2,-8
3,CC1(C)CN(C(=O)c2cn[nH]c(=O)c2)C(C)(C)CN1Cc1ccccc1,-2
4,Cc1nonc1NC(=O)CCCC1CCCC1,0
5,Cc1nn(Cn2nc(-c3ccc(F)cc3)c(Br)c2-c2ccc(F)cc2)c(C)c1Cl,5
6,O=S(=O)(c1cccc(F)c1)c1cnc2c(F)cccc2c1-c1cccc(F)c1,-8
7,CCc1ccc(CNC(=O)C2(N3CCOCC3)CCC2)s1,-5
8,Cc1cc(C)c(C(=O)O)cc1NC(=O)c1oc(C2CC2)nc1C,-8
9,CC1(C)CC(=O)C2(Cc3cc(C(F)(F)F)ccc3N3CCCC[C@H]32)C(=O)C1,3
10,CCCCS(=O)(=O)N1CC[C@H](CC(=O)NCc2ccccc2)C1,-14
11,O=C(Nc1cccc2ccccc12)c1nn[nH]c1NS(=O)(=O)c1ccccc1,-9
12,Cc1nc2c(Oc3ccccc3)cccc2c2c1CCN2c1ccc(OC(F)(F)F)cc1,-17
13,COc1nc2ncnc(OC)c2nc1C#N,3
14,N#CCc1ncc(CCN2C(=O)c3ccccc3C2=O)s1,-1
15,O=C1CN(C(=O)c2ccc3noc(-c4ccccc4)c3c2)CCN1,-1
16,CC(C)N1CCC(NC(=O)NCC2CCCCCCC2)CC1,0
17,O=C1CNC(=O)N1Cc1ncoc1-c1ccccc1,-15
18,O=C1O[C@H](C(=O)Nc2ccc(S(=O)(=O)N3CCCC3)cc2)Cc2ccccc21,-16
19,Cc1cc(C)n(-c2nnc(-c3ccccc3)c(-c3ccccc3)n2)n1,2
20,COc1c2c(cc3c1[C@@H](C#CCOc1ccccc1)[N+](C)(C)CC3)OCO2,75
21,CC(C)(C)c1cnc(CN2CCCN(C(N)=O)CC2)s1,-1
22,CCS(=O)(=O)N1CCC(N2C(=O)[C@@H]3CC[C@@H](c4ccccc4)N3C2=O)CC1,-5
23,c1cc(-c2nnn(CN3CCCCC3)n2)ccn1,-6
24,N[C@H]1COc2ccc(Br)cc2C1=O,-3
25,CC1(C)C(NCC(O)COc2ccc(F)c(F)c2)[C@@H]2CCC[C@@H]21 (stereo partly drawn),72
26,COc1ccc(-c2nccn3cc(C(=O)NCCc4ccncc4)nc23)cc1,-1

row,SMILES,% Inhibition [%]
1,CS(=O)(=O)Nc1ccc(OC(=O)C2C3CCCCC32)cc1 (stereo not drawn),7
2,CC1CCC2C(CCC(C)N2C(=O)c2cc3nc4c(c(C(F)(F)F)n3n2)CCc2ccccc2-4)C1 (stereo not drawn),-2
3,CC(C)N(C)CCOC(=O)c1ccccc1Cl,-1
4,Cc1ccc(S(=O)(=O)Nc2ccccc2-c2nnc(-c3c(NS(=O)(=O)c4ccc(C)cc4)ccc4ccccc34)o2)cc1,-14
5,O=C(c1cn(CC2(O)CCN(Cc3ccccc3)CC2)nn1)N1CCCc2ccccc21,12
6,CC(C)C[C@]1(C)NC(=O)N(Cc2noc(-c3cccs3)n2)C1=O,-13
7,O=c1c2ccccc2nc2cc(-c3ccc(O)cc3)c(-c3ccccc3)nn12,53
8,O=C(CNc1ccc2ccccc2c1)Nc1ccc2c(c1)OCCCO2,1
9,Cc1ccc(S(=O)(=O)NC(C)C)c(C)c1,-2
10,O=C(CS(=O)(=O)Cc1cc(Cl)c2c(c1)OCCCO2)NC1CCCCCC1,-11
11,FC(F)(F)C(c1nc(Nc2nc(N3CCOCC3)nc(N3CCOCC3)n2)nc(C(C(F)(F)F)(C(F)(F)F)C(F)(F)F)n1)(C(F)(F)F)C(F)(F)F,10
12,COC(=O)Nc1nc(-c2ccccc2)c(-c2nc3ccccc3c(=O)n2-c2ccc(OC)cc2)s1,5
13,Cc1cccc2c1N(C(=O)[C@H]1CCS(=O)(=O)C1)CC2,2
14,CCc1cc(N2C[C@@H]3NC(=O)CN(C)Cc4ccc(OC)c(c4)Oc4cccc(c4)CO[C@H]3C2)nc(N(C)C)n1,60
15,Nc1n[nH]c(N)c1Cc1cccc(Br)c1,-2
16,CCC1CN(CCCN2C(=O)CNC2=O)CCC1c1ccccc1 (stereo not drawn),0
17,C[C@H](NC(=O)c1ccco1)c1nc(-c2ccc(=O)n(C)c2)no1,-3
18,CC[C@H](C)Oc1cccc(-c2nc(=O)c(CCC(=O)N3CCOCC3)n[nH]2)c1,0
19,Clc1cccc(COc2ccccc2CNc2nc[nH]n2)c1,-4
20,CCCCN(CC)c1ncc(C(=O)Nc2ccc(OCC)cc2)c(N)n1,27
21,COc1ccc(CC(=O)NCCOCCO)cc1,5
22,C#CCN(C(=O)c1ccncc1CC)c1nccs1,-10
23,CCN(C[C@H](C)C#N)C(=O)C(=O)Nc1ccc(F)cc1Cl,-5
24,CCCN1CCN(C(=O)CN2CCCC2=O)c2ccc(F)cc21,-2
25,COc1ccc(-c2nc(-c3ccc(=O)n(C)c3)no2)c(OC)c1,-5
26,CC[C@@H](CO)NC(=O)Nc1ccc(F)cc1,3

row,SMILES,% Inhibition [%]
1,O=C(CNC1=NC(=O)C(c2ccccc2)(c2ccccc2)N1)NCc1ccc(F)cc1,-1
2,COc1ccc(C(=O)n2[nH]c(=O)c(CCO)c2C)cc1,-3
3,CC1CC(c2ccccc2)CCN1C(=O)c1cc(C2CC2)on1 (stereo not drawn),-5
4,CC(C)[C@@H](C(=O)Nc1ccc2c(c1)OCO2)N(Cc1cccnc1)C(=O)Cn1nnc2ccccc21,-9
5,COc1cccc(-c2nsc(C(=O)NCc3cccnc3)c2N)c1,5
6,c1ccc(-c2cc3c(N4CCC4)ncnc3s2)cc1,-6
7,CN(C(=O)C1C(C(=O)O)C1(C)C)c1ccccc1OC(F)F (stereo not drawn),-2
8,Cc1cnn(-c2ccncc2NS(C)(=O)=O)c1,-15
9,O=c1cc(-c2ccccc2)n(S(=O)(=O)c2ccccc2)o1,-8
10,O=C(Nc1ccc2c(c1)OCCCO2)c1ccsc1,6
11,Cc1ocnc1C(=O)N[C@H]1CCN(c2ccc(Cl)c(F)c2)C1=O,-2
12,CN(c1ccc(Cl)cn1)S(=O)(=O)c1ccc2ncccc2c1,-22
13,O=C(O)Cc1ccc(OCc2nnc(-c3ccccc3)s2)cc1,-4
14,c1ccc(-c2cccnc2NCc2cscn2)cc1,-6
15,COc1ccc(NC(=O)Cc2c(C)nn(-c3nc(C)cs3)c2O)c(OC)c1,-7
16,Cc1c(N2CCN(C(=O)c3ccc(F)cc3)CC2)c(=O)n(C)c(=O)n1C,-4
17,CCOC(=O)CNc1ccc(F)c(Cl)c1,-6
18,O=C(CN1C(=O)COc2ccccc21)N1CCC[C@H](c2nc3ccccc3s2)C1,-8
19,CC(C)n1nccc1N1C(=O)N[C@@H](CC(F)(F)F)C1=O,0
20,Cc1ncsc1[C@@H]1CC(=O)Nc2nc(N3CCC(C)CC3)nc(O)c21,-7
21,NC(=O)C1CCN(C(=O)Nc2nc(C(F)(F)F)cs2)CC1,5
22,Cc1c(C(=O)NC[C@](C)(O)c2ccc(F)cc2F)cnn1C,7
23,CCNC(=O)C[C@H]1CCCCN1C(=O)C1CCN(Cc2csc(C)n2)CC1,-1
24,O=C1CCCC1C(c1ccccc1)N(C1=NS(=O)(=O)c2ccccc21)c1ccccc1 (stereo not drawn),-10
25,CCC(C)(C)N(C)C(=O)c1ccccc1Cl,1
